Laboratory results taken from PubChem BioAssay AID1460 (National Center for Advancing Translational Sciences (NCATS), 2008).
Where “and” joins values, the source holds several entries; their conditions need not be identical. Identical values can stand only once. In all, about 270,000 compounds went through this assay and about 5,800 (2.1%) were called active. Inconclusive means that the source gave no clear call. Such entries were picked first, then a sample of the others. Calls follow the shape of the dose curve; as a rule, active = well fitted inhibition curve with a large enough effect; inconclusive = small, poorly fitted or top-dose-only effect; inactive = flat fitted curve, though single readings scatter. Potencies of inconclusive entries are doubtful fits and often do not repeat.

Molecular target: Microtubule-associated protein tau (Homo sapiens) (UniProt P10636)
Assay: qHTS for Inhibitors of Tau Fibril Formation, Thioflavin T Binding; also: nearly all actives have a fitted effect of over 55% in size
Settings: recombinant tau K18 P301L (four-repeat tau fragment), heparin-induced fibrillization, ThT fluorescence; series mostly up to 57.4 µM; activity, negative = inhibition: at the top concentration
Method in brief: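 K18 P301L tau (15 uM + 0.24 uM Alexa 594-tagged), heparin 20 uM, NaOAc pH 7, 6 h 37 C; ThT 30 uM, 1 h RT, ex 450/em 510 nm.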
% is scaled to controls: 0 for no effect and ±100 for the full control effect; potency is read from the fitted curve at half-maximal effect; tags tell the direction and shape of the fitted curve.

Chain of UniProt P10636 (P10636 whole entry, looked up): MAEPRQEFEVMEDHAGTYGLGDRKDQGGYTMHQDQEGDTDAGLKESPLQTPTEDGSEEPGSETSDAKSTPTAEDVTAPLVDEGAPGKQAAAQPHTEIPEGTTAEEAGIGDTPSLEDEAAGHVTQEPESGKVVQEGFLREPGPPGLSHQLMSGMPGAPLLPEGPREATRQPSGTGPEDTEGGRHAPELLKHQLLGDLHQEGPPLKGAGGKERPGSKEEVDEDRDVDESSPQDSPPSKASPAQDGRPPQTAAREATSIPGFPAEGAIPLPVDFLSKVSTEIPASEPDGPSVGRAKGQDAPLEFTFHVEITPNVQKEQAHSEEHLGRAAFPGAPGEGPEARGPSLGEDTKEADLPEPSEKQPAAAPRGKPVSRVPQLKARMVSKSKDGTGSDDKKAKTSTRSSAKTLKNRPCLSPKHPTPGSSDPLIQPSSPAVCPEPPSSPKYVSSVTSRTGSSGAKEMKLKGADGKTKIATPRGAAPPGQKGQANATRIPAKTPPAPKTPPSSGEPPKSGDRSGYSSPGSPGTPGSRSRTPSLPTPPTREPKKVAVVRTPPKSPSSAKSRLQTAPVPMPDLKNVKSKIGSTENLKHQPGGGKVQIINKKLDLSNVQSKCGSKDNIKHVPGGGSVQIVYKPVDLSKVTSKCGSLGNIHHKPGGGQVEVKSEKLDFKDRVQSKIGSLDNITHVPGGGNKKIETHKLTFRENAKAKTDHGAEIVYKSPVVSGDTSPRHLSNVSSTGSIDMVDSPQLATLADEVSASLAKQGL

Row | Structure (SMILES) | Potency | activity, negative = inhibition
1 | OC(COc1ccc2ccccc2c1)CN1CCN(c2ccc(F)cc2)CC1 (stereo unspecified) | inconclusive: 3.55 µM [inhibitor, partial curve] | 
2 | Oc1c(C(c2ccco2)N2CCOCC2)sc2ncnn12 (stereo unspecified) | inconclusive: 17.8 µM [inhibitor, partial curve] | 
3 | O=[N+]([O-])c1cc(CN2CCN(c3ccccc3)CC2)c(O)c2ncccc12 | inconclusive: 10 µM [inhibitor, partial curve] | 
4 | CCOC(=O)N1CCN(C(=O)CSCc2nc(-c3ccccc3C)oc2C)CC1 | inconclusive: 15.8 µM [inhibitor, partial curve] | 
5 | Cc1cc(C)c(S(=O)(=O)N2CCCC(C(=O)NCCC3=CCCCC3)C2)c(C)c1 (stereo unspecified) | inconclusive: 35.5 µM [inhibitor, single point] | 
6 | CCc1cccc(NC(=O)c2ccc(CNS(=O)(=O)c3ccc4c(c3)C(C)(C)C(=O)N4C)cc2)c1 |  | inactive: -5.07%
7 | Cc1ccc(Nc2nc3nonc3[nH]c2=O)cc1Cl | inconclusive: 3.98 µM [activator, single point] | 
8 | Cc1nn(C)cc1CN(C)Cc1c(C(=O)N(C)Cc2ccccc2)nc2ccccn12 | inconclusive: 39.8 µM [inhibitor, single point] | 
9 | CC1=C/C(=C/N(C)c2ccccc2)C(=O)S1 | active: 20 µM | 
10 | O=C1C2C(C(=O)N1CCN1CCN(Cc3ccc([N+](=O)[O-])cc3)CC1)[C@H]1C=C[C@@H]2C1 (stereo partly specified) |  | inactive: -11.6%
11 | Cc1[nH]c2ccccc2c1SCCNC(=O)c1ccccc1F | inconclusive: 31.6 µM [inhibitor, single point] | 
12 | Cc1ccc(NC(=O)COC(=O)c2ccc3c(c2)NC(=O)C2CCCN32)cc1 (stereo unspecified) | inconclusive: 15.8 µM [inhibitor, partial curve] | 
13 | Cc1ccc(C2C(C#N)=C(N)Oc3nc(-c4ccccc4)[nH]c32)o1 (stereo unspecified) | inconclusive: 15.8 µM [inhibitor, partial curve] | 
14 | O=C(N/N=C/c1cccs1)c1ccc2c(c1)OCO2 | inconclusive: 10 µM [inhibitor, partial curve] | 
15 | CCc1ccccc1NC(=O)C(=O)NCCc1sc(-c2cccc(F)c2)nc1C |  | inactive: -4.04%
16 | O=C(CN1CCN(c2ccccn2)CC1)Nc1ccccc1 |  | inactive: 6.66%
17 | Cc1ccc(CNC(=O)c2ccc(-c3nc(CS(=O)(=O)c4ccc(C)cc4)c(C)o3)cc2)cc1 |  | inactive: 18.7%
18 | O=c1[nH]c2ccc(NS(=O)(=O)c3ccc(Cl)cc3)cc2[nH]1 | inconclusive: 28.2 µM [inhibitor, single point] | 
19 | COc1ccc2[nH]c(O)c(N=NC(=O)Cc3cccs3)c2c1 | active: 15.8 µM | 
20 | CCOC(=O)c1c(C)oc2c1c(C(c1cccnc1)N1CCCCC1)c(O)c1ccccc12 (stereo unspecified) | inconclusive: 20 µM [inhibitor, partial curve] | 
21 | COc1ccc(/C=C/C(=O)NCC2COc3ccccc3O2)c(OC)c1 (stereo unspecified) | inconclusive: 15.8 µM [inhibitor, partial curve] | 
22 | O=C(CC1C(=O)NCCN1Cc1cccc(Oc2ccccc2)c1)NCc1cccnc1 (stereo unspecified) | inconclusive: 35.5 µM [inhibitor, partial curve] | 
23 | CCOc1ccc(CCNC(=O)c2cc3sc(CC)cc3n2C)cc1OCC | inconclusive: 7.08 µM [inhibitor, partial curve] | 
24 | Cc1ccc(-c2cc(=O)[nH][nH]2)c(C)c1 | inconclusive: 7.94 µM [inhibitor, partial curve] | 

Row | Structure (SMILES) | Potency | activity, negative = inhibition
25 | C/C=C(\C)C(=O)N1CC2(CC(c3cccc(NC(=O)CC(c4ccccc4)c4ccccc4)c3)=NO2)C[C@H]1C(N)=O (stereo partly specified) |  | inactive: 0.195%
26 | Cc1ccc(C)c(-c2csc(N/N=C/c3ccco3)n2)c1 | inconclusive: 7.94 µM [inhibitor, partial curve] | 
27 | Cc1nc2ccccn2c1C(=O)NNC(=S)Nc1ccc(Cl)cc1 | inconclusive: 14.1 µM [inhibitor, partial curve] | 
28 | FC(F)(F)c1cnc(Oc2cccc3ccccc23)c(Cl)c1 |  | inactive: -8.56%
29 | O=C(Cc1cccc2ccccc12)Nc1ccc(OC(F)F)c(Cl)c1 |  | inactive: 4.35%
30 | COc1ccc2[nH]cc(CCCN3C(=O)c4ccccc4C3=O)c2c1 | inconclusive: 28.2 µM [inhibitor, single point] | 
31 | CC(C)(C)C1=C(C#N)C(c2cccnc2)C(C#N)=C(N)O1 (stereo unspecified) | inconclusive: 12.6 µM [inhibitor, partial curve] | 
32 | COCc1cc(Sc2ccc(Cl)cc2)nc(C)n1 |  | inactive: -1.69%
33 | CC(N)=NCCCC[C@H](N)C(=O)O |  | inactive: -5.38%
34 | CC(C)C1N=C(c2ccc3c(c2)OCO3)CC(c2ccccc2O)N1 (stereo unspecified) | inconclusive: 22.4 µM [inhibitor, partial curve] | 
35 | COc1ccc(Nc2nc(-c3ccc(OC)cc3)c(CCC(=O)O)s2)cc1 | inconclusive: 17.8 µM [inhibitor, partial curve] | 
36 | Cc1sc(-c2ccccn2)nc1OC(=O)c1ccc(F)cc1F | inconclusive: 31.6 µM [inhibitor, single point] | 
37 | CCOCCCn1c(=NC(=O)c2cccs2)c(C#N)cc2c(=O)n3ccccc3nc21 |  | inactive: 7.78%
38 | c1ccc(N2CCN(c3ccccc3)C2c2cccs2)cc1 | inconclusive: 25.1 µM [inhibitor, partial curve] | 
39 | CC(C)CC(C(=O)Nc1oc(-c2ccco2)c(-c2ccco2)c1C#N)N1C(=O)c2ccccc2C1=O (stereo unspecified) | inconclusive: 17.8 µM [inhibitor, partial curve] | 
40 | COCc1cc(C)nc2sc3c(=O)n(-c4cccc5ccccc45)nnc3c12 | inconclusive: 28.2 µM [inhibitor, partial curve] | 
41 | COc1ccc(N2C(=O)[C@@H]3[C@H](C2=O)[C@H]2c4ccccc4C=CN2[C@@H]3C(C)=O)cc1 | active: 15.8 µM | 
42 | Nc1c(C(=O)c2ccccc2)oc2ccccc12 | inconclusive: 10 µM [inhibitor, partial curve] | 
43 | COc1cc2c(-c3ccccc3Cl)nc3c(c(C)nn3-c3ccccc3)c2cc1OC |  | inactive: 3.81%
44 | Cc1nc2ccc(S(=O)(=O)NC(C(=O)NCc3ccc(Cl)cc3)C(C)C)cc2s1 (stereo unspecified) |  | inactive: -4.44%
45 | COc1ccccc1CNC(=O)c1c(O)nc2cc(C)ccn2c1=O |  | inactive: 9.63%
46 | Cc1ccc(OCC(=O)Nc2ccc(S(=O)(=O)N(Cc3ccccc3)c3ccccc3)cc2)cc1 |  | inactive: 11.6%
47 | Oc1c(N=NC(=S)Nc2ccccc2F)c2ccccc2n1Cc1ccc(F)cc1 | inconclusive: 8.91 µM [inhibitor, partial curve] | 
48 | Oc1ccc(N=Nc2n[nH]c(-c3ccccc3)n2)cc1 | active: 2.51 µM | 

Row | Structure (SMILES) | Potency | activity, negative = inhibition
49 | Cc1ccccc1C(=O)NCC(=O)NNC(=S)NC(=O)c1ccccc1C |  | inactive: 16.5%
50 | c1cncc(CNc2nc(-c3ccoc3)nc3ccccc23)c1 | active: 28.2 µM | 
51 | N#C/C(=C\c1ccc(-c2ccc([N+](=O)[O-])cc2Br)o1)C(=O)N1CCN(c2ccccc2)CC1 | inconclusive: 3.98 µM [inhibitor, full curve] | 
52 | Cc1ccccc1NC(=O)/C=C1\SC(=O)NC1=O | inconclusive: 39.8 µM [inhibitor, single point] | 
53 | COC(=O)c1c(NC(=S)Nc2ccccc2Cl)sc(C)c1C | inconclusive: 22.4 µM [inhibitor, single point] | 
54 | Cc1sc2nc3c4ccccc4c(NCc4ccco4)nn3c(=O)c2c1C | active: 25.1 µM | 
55 | O=c1c2ccccc2nc2ccccn12 |  | inactive: -5.89%
56 | COc1ccccc1NS(=O)(=O)c1cccc(C(=O)NN=C2CCCC2)c1 |  | inactive: -4.83%
57 | COc1ccc(-c2nnc3sc(COc4ccccc4)nn23)cc1 | inconclusive: 22.4 µM [inhibitor, partial curve, poor fit] | 
58 | CCOc1cccc(C(=O)NC(=S)Nc2ccc3c(c2)OCCO3)c1 | inconclusive: 11.2 µM [inhibitor, partial curve, poor fit] | 
59 | O=C(CSc1cn(CCNC(=O)c2cccs2)c2ccccc12)NC1CCCC1 |  | inactive: -7.36%
60 | CCOC(=O)c1c(C)c(C)n(Cc2cccc(OC)c2OC)c1C | active: 25.1 µM | 
61 | O=C(N/N=C/c1ccc2nccnc2c1)c1cccc([N+](=O)[O-])c1 | inconclusive: 2.82 µM [inhibitor, full curve] | 
62 | CCOC(=O)c1cnc2c(C)cccc2c1Nc1ccc(N2CCOCC2)cc1 | active: 22.4 µM | 
63 | CCN(c1ccc(C)cc1C)S(=O)(=O)c1nnc(NC(=O)c2ccccc2OC)s1 |  | inactive: -9.68%
64 | CCN(Cc1ccccc1)c1ccc(N=Nc2nn(C)c(C)c2[N+](=O)[O-])cc1 | active: 10 µM | 
65 | CN(CCCNC(=O)c1cn(C)c2ccc(S(=O)(=O)N(C)C)cc2c1=O)c1ccccc1 | inconclusive: 17.8 µM [inhibitor, partial curve] | 
66 | Cc1ccc(Nc2c(-c3ccc(N4CCOCC4)cc3)nc3ncccn23)cc1C | inconclusive: 39.8 µM [inhibitor, single point] and inconclusive: 31.6 µM [inhibitor, single point] | 
67 | CN(C)CCCN1c2ccccc2Sc2ccccc21 | inconclusive: 20 µM [inhibitor, single point] | 
68 | O=C(NC(=S)Nc1ccc(N2CCOCC2)cc1)c1cccs1 | inconclusive: 3.98 µM [inhibitor, partial curve] | 
69 | O=C(Nc1ccc(N2CCN(C(=O)c3ccc(Cl)cc3)CC2)cc1)c1cc2ccccc2o1 | inconclusive: 1.58 µM [inhibitor, full curve] | 
70 | FC(F)(F)c1nnc2c(Sc3ccccn3)nc3ccccc3n12 | inconclusive: 31.6 µM [inhibitor, single point] | 
71 | CCN1CCN(c2nc(Nc3ccc(OC)cc3)nc(N)c2[N+](=O)[O-])CC1 | inconclusive: 17.8 µM [inhibitor, partial curve, poor fit] | 
